Measured values as given in article PMC5054401.
These are yes or no findings as the source states them, for the method shown. Binding seen in cells or lysates may run through a third protein. Some entries that bind do so weakly or less than the wild type. Sequences can lack the tags named with a protein.

Sequences of proteins named here, by UniProt entry; tags and fusion partners are left off.
UniProt P52294: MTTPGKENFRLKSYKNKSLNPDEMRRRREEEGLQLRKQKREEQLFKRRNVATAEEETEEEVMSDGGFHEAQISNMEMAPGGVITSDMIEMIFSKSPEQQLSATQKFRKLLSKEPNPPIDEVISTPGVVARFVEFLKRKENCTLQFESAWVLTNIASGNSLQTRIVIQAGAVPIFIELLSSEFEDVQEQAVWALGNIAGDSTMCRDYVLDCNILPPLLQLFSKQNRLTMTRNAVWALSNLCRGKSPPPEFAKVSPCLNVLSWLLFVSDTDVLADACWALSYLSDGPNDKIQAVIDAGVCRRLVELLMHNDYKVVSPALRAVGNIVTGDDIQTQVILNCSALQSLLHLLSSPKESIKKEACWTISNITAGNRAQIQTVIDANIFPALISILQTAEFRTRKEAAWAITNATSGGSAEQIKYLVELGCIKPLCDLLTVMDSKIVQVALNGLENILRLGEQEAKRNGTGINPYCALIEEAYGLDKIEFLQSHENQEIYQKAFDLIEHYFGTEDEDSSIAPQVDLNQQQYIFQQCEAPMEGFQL

Columns and labels:
[1] = biological target: T1, Flag-tagged WT-OGT (human O-GlcNAc transferase) (human) (UniProt O15294); assay: co-IP; HeLa cells transfected with Flag-tagged OGT; immunoprecipitated with anti-Flag antibody; bound endogenous importin α5 detected with an anti-importin α5 antibody
T1 sequence: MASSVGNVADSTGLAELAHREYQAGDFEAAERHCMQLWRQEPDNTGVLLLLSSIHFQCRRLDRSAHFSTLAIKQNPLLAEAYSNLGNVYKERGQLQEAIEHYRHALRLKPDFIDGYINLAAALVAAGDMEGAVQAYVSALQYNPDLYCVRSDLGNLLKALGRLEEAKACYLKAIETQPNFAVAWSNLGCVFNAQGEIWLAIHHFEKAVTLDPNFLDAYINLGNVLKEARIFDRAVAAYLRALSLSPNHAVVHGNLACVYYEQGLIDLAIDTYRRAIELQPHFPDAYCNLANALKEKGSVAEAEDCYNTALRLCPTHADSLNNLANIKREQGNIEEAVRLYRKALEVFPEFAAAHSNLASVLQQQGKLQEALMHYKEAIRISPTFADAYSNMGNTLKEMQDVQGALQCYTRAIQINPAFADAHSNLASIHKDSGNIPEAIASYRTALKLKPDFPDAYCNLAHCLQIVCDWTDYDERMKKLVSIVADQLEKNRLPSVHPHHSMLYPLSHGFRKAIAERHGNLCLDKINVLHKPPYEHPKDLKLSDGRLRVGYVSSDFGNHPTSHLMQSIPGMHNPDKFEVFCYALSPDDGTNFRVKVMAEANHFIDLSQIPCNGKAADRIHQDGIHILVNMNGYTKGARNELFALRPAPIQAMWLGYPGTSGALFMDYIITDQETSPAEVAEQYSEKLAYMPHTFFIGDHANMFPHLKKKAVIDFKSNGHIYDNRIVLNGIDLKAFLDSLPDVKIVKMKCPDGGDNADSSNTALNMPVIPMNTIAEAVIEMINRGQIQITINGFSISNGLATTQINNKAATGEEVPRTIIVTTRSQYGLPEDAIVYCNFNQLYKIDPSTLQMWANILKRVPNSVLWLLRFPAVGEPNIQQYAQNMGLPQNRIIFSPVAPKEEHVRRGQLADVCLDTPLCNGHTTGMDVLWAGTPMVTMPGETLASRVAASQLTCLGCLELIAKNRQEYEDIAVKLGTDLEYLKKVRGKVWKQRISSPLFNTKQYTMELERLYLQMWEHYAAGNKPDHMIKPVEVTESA

[2] = biological target: GST-importin α5 fusion protein (human) (UniProt P52294); assay: pull-down; recombinant GST-importin α5 immobilised on Glutathione-Sepharose 4B (5 μg of beads) incubated with pre-cleared lysates of HeLa cells overexpressing Flag-tagged OGT constructs, 2 h at 4 °C; bound OGT detected with anti-Flag antibody; only the target purified
[3] = biological target: Myc-tagged importin α5 (human) (UniProt P52294); assay: co-IP; HeLa cells co-transfected with Flag-tagged OGT constructs and Myc-tagged importin α or β; lysates immunoprecipitated with anti-Flag or with anti-Myc antibody, the partner detected by western blot; co-IP buffer 50 mM Tris-HCl pH 7.4, 150 mM NaCl, 0.5% NP-40, 4 °C; beads washed three times (stringently in Fig. 4a,b)

Row | binding [1] | binding [2] | binding [3] | Molecule
1 | binds |  |  | endogenous importin α5 (from UniProt P52294 1-538)
2 |  | binds | binds | Flag-tagged Mono-OGT (OGT-W198E, I201D) (enzyme, UniProt O15294-3 1-1036) MASSVGNVADSTGLAELAHREYQAGDFEAAERHCMQLWRQEPDNTGVLLLLSSIHFQCRRLDRSAHFSTLAIKQNPLLAEAYSNLGNVYKERGQLQEAIEHYRHALRLKPDFIDGYINLAAALVAAGDMEGAVQAYVSALQYNPDLYCVRSDLGNLLKALGRLEEAKACYLKAIETQPNFAVAWSNLGCVFNAQGEIELADHHFEKAVTLDPNFLDAYINLGNVLKEARIFDRAVAAYLRALSLSPNHAVVHGNLACVYYEQGLIDLAIDTYRRAIELQPHFPDAYCNLANALKEKGSVAEAEDCYNTALRLCPTHADSLNNLANIKREQGNIEEAVRLYRKALEVFPEFAAAHSNLASVLQQQGKLQEALMHYKEAIRISPTFADAYSNMGNTLKEMQDVQGALQCYTRAIQINPAFADAHSNLASIHKDSGNIPEAIASYRTALKLKPDFPDAYCNLAHCLQIVCDWTDYDERMKKLVSIVADQLEKNRLPSVHPHHSMLYPLSHGFRKAIAERHGNLCLDKINVLHKPPYEHPKDLKLSDGRLRVGYVSSDFGNHPTSHLMQSIPGMHNPDKFEVFCYALSPDDGTNFRVKVMAEANHFIDLSQIPCNGKAADRIHQDGIHILVNMNGYTKGARNELFALRPAPIQAMWLGYPGTSGALFMDYIITDQETSPAEVAEQYSEKLAYMPHTFFIGDHANMFPHLKKKAVIDFKSNGHIYDNRIVLNGIDLKAFLDSLPDVKIVKMKCPDGGDNADSSNTALNMPVIPMNTIAEAVIEMINRGQIQITINGFSISNGLATTQINNKAATGEEVPRTIIVTTRSQYGLPEDAIVYCNFNQLYKIDPSTLQMWANILKRVPNSVLWLLRFPAVGEPNIQQYAQNMGLPQNRIIFSPVAPKEEHVRRGQLADVCLDTPLCNGHTTGMDVLWAGTPMVTMPGETLASRVAASQLTCLGCLELIAKNRQEYEDIAVKLGTDLEYLKKVRGKVWKQRISSPLFNTKQYTMELERLYLQMWEHYAAGNKPDHMIKPVEVTESA
3 |  | no binding |  | Flag-tagged Mono-OGT Δ451–453 (enzyme, UniProt O15294-3 1-1036) MASSVGNVADSTGLAELAHREYQAGDFEAAERHCMQLWRQEPDNTGVLLLLSSIHFQCRRLDRSAHFSTLAIKQNPLLAEAYSNLGNVYKERGQLQEAIEHYRHALRLKPDFIDGYINLAAALVAAGDMEGAVQAYVSALQYNPDLYCVRSDLGNLLKALGRLEEAKACYLKAIETQPNFAVAWSNLGCVFNAQGEIELADHHFEKAVTLDPNFLDAYINLGNVLKEARIFDRAVAAYLRALSLSPNHAVVHGNLACVYYEQGLIDLAIDTYRRAIELQPHFPDAYCNLANALKEKGSVAEAEDCYNTALRLCPTHADSLNNLANIKREQGNIEEAVRLYRKALEVFPEFAAAHSNLASVLQQQGKLQEALMHYKEAIRISPTFADAYSNMGNTLKEMQDVQGALQCYTRAIQINPAFADAHSNLASIHKDSGNIPEAIASYRTALKLKPDAYCNLAHCLQIVCDWTDYDERMKKLVSIVADQLEKNRLPSVHPHHSMLYPLSHGFRKAIAERHGNLCLDKINVLHKPPYEHPKDLKLSDGRLRVGYVSSDFGNHPTSHLMQSIPGMHNPDKFEVFCYALSPDDGTNFRVKVMAEANHFIDLSQIPCNGKAADRIHQDGIHILVNMNGYTKGARNELFALRPAPIQAMWLGYPGTSGALFMDYIITDQETSPAEVAEQYSEKLAYMPHTFFIGDHANMFPHLKKKAVIDFKSNGHIYDNRIVLNGIDLKAFLDSLPDVKIVKMKCPDGGDNADSSNTALNMPVIPMNTIAEAVIEMINRGQIQITINGFSISNGLATTQINNKAATGEEVPRTIIVTTRSQYGLPEDAIVYCNFNQLYKIDPSTLQMWANILKRVPNSVLWLLRFPAVGEPNIQQYAQNMGLPQNRIIFSPVAPKEEHVRRGQLADVCLDTPLCNGHTTGMDVLWAGTPMVTMPGETLASRVAASQLTCLGCLELIAKNRQEYEDIAVKLGTDLEYLKKVRGKVWKQRISSPLFNTKQYTMELERLYLQMWEHYAAGNKPDHMIKPVEVTESA
4 |  | no binding |  | Flag-tagged Mono-OGT 451–453 AAA (enzyme, UniProt O15294-3 1-1036) MASSVGNVADSTGLAELAHREYQAGDFEAAERHCMQLWRQEPDNTGVLLLLSSIHFQCRRLDRSAHFSTLAIKQNPLLAEAYSNLGNVYKERGQLQEAIEHYRHALRLKPDFIDGYINLAAALVAAGDMEGAVQAYVSALQYNPDLYCVRSDLGNLLKALGRLEEAKACYLKAIETQPNFAVAWSNLGCVFNAQGEIELADHHFEKAVTLDPNFLDAYINLGNVLKEARIFDRAVAAYLRALSLSPNHAVVHGNLACVYYEQGLIDLAIDTYRRAIELQPHFPDAYCNLANALKEKGSVAEAEDCYNTALRLCPTHADSLNNLANIKREQGNIEEAVRLYRKALEVFPEFAAAHSNLASVLQQQGKLQEALMHYKEAIRISPTFADAYSNMGNTLKEMQDVQGALQCYTRAIQINPAFADAHSNLASIHKDSGNIPEAIASYRTALKLKPAAADAYCNLAHCLQIVCDWTDYDERMKKLVSIVADQLEKNRLPSVHPHHSMLYPLSHGFRKAIAERHGNLCLDKINVLHKPPYEHPKDLKLSDGRLRVGYVSSDFGNHPTSHLMQSIPGMHNPDKFEVFCYALSPDDGTNFRVKVMAEANHFIDLSQIPCNGKAADRIHQDGIHILVNMNGYTKGARNELFALRPAPIQAMWLGYPGTSGALFMDYIITDQETSPAEVAEQYSEKLAYMPHTFFIGDHANMFPHLKKKAVIDFKSNGHIYDNRIVLNGIDLKAFLDSLPDVKIVKMKCPDGGDNADSSNTALNMPVIPMNTIAEAVIEMINRGQIQITINGFSISNGLATTQINNKAATGEEVPRTIIVTTRSQYGLPEDAIVYCNFNQLYKIDPSTLQMWANILKRVPNSVLWLLRFPAVGEPNIQQYAQNMGLPQNRIIFSPVAPKEEHVRRGQLADVCLDTPLCNGHTTGMDVLWAGTPMVTMPGETLASRVAASQLTCLGCLELIAKNRQEYEDIAVKLGTDLEYLKKVRGKVWKQRISSPLFNTKQYTMELERLYLQMWEHYAAGNKPDHMIKPVEVTESA
